Publication PMC9911399, “Two distinct binding modes provide the RNA-binding protein RbFox with extraordinary sequence specificity”
Changes are numbered by the printed parent chain; changes in the protein carry UniProt numbers. Some of the results follow.

Legend:
[1] = target: T1, RBFOX1 RRM RbFoxmut (Fox-RRM*) (Homo sapiens, UniProt Q9NWB1 109-208, R118D;E147R;N151S;E152T); test: EMSA; HiTS-Eq, 1 nM pool, 10 min; buffer printed only for the single-RNA assays: 10 mM Tris pH 7.5, 150 mM NaCl, 3.4 mM EDTA, 0.001% NP-40, 30 C; conditions: tags: His6 N-terminal (pET28a); label: 5' 32P
T1 sequence: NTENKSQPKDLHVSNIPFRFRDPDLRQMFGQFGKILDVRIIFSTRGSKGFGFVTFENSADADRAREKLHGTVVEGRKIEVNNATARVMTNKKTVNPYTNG
In short: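 Purified wild-type or mutant RbFox RRM at increasing concentrations was equilibrated with 1 nM of 5′-radiolabelled RNA carrying 7 randomized nucleotides for 10 min in 50 µL. Unbound RNA was separated by 8% native PAGE and sequenced. Relative association constants came from read-count changes of each RNA species compared with the control reaction, normalised to the cognate motif.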

[2] = target: T1, RBFOX1 RRM RbFoxmut (Fox-RRM*); test: competition; 10 mM Tris pH 7.5, 150 mM NaCl, 3.4 mM EDTA, 0.001% NP-40, 30 C; conditions: tags: His6 N-terminal (pET28a)

B1: GGUCUAC (DNA:RNA)
RNA: GGGAGACCGGAAUUCAGAUUGUCCGGUCUACUUAAAUCCCGUCGUAGCCACCA
DNA 1: CAATCTGAATTCCGGTCTCCC
DNA 2: TGGTGGCTACGACGGGATT
binding signal [1]: 0.0853 KA relative to UGCAUGU

B2: GGAGUGU (DNA:RNA)
RNA: B1 RNA with U27A, C28G, A30G, C31U
DNA 1: CAATCTGAATTCCGGTCTCCC
DNA 2: TGGTGGCTACGACGGGATT
binding signal [1]: 0.215 KA relative to UGCAUGU

B3: UUAAAGA (DNA:RNA)
RNA: GGGAGACCGGAAUUCAGAUUGUCCUUAAAGAUUAAAUCCCGUCGUAGCCACCA
DNA 1: CAATCTGAATTCCGGTCTCCC
DNA 2: TGGTGGCTACGACGGGATT
binding signal [1]: 0.0655 KA relative to UGCAUGU

B4: AUCAUAG (DNA:RNA)
RNA: B1 RNA with G25A, G26U, U27C, C28A, C31G
DNA 1: CAATCTGAATTCCGGTCTCCC
DNA 2: TGGTGGCTACGACGGGATT
binding signal [1]: 0.152 KA relative to UGCAUGU

B5: AGACCUU (DNA:RNA)
RNA: B1 RNA with G25A, U27A, U29C, A30U, C31U
DNA 1: CAATCTGAATTCCGGTCTCCC
DNA 2: TGGTGGCTACGACGGGATT
binding signal [1]: 0.0711 KA relative to UGCAUGU

B6: UGGACGC (DNA:RNA)
RNA: B3 RNA with U26G, A27G, A29C, A31C
DNA 1: CAATCTGAATTCCGGTCTCCC
DNA 2: TGGTGGCTACGACGGGATT
binding signal [1]: 0.0795 KA relative to UGCAUGU

B7: UCGGGUG (DNA:RNA)
RNA: B3 RNA with U26C, A27G, A28G, A29G, G30U, A31G
DNA 1: CAATCTGAATTCCGGTCTCCC
DNA 2: TGGTGGCTACGACGGGATT
binding signal [1]: 0.175 KA relative to UGCAUGU

B8: UGAUCUA (DNA:RNA)
RNA: B3 RNA with U26G, A28U, A29C, G30U
DNA 1: CAATCTGAATTCCGGTCTCCC
DNA 2: TGGTGGCTACGACGGGATT
binding signal [1]: 0.0664 KA relative to UGCAUGU

B9: CAACUGG (DNA:RNA)
RNA: B1 RNA with G25C, G26A, U27A, A30G, C31G
DNA 1: CAATCTGAATTCCGGTCTCCC
DNA 2: TGGTGGCTACGACGGGATT
binding signal [1]: 0.0703 KA relative to UGCAUGU

B10: AAUAUUC (DNA:RNA)
RNA: B1 RNA with G25A, G26A, C28A, A30U
DNA 1: CAATCTGAATTCCGGTCTCCC
DNA 2: TGGTGGCTACGACGGGATT
binding signal [1]: 0.0803 KA relative to UGCAUGU

B11: GCUUAUA (DNA:RNA)
RNA: B1 RNA with G26C, C28U, U29A, A30U, C31A
DNA 1: CAATCTGAATTCCGGTCTCCC
DNA 2: TGGTGGCTACGACGGGATT
binding signal [1]: 0.119 KA relative to UGCAUGU

B12: CCUUCCG (DNA:RNA)
RNA: B1 RNA with G25C, G26C, C28U, U29C, A30C, C31G
DNA 1: CAATCTGAATTCCGGTCTCCC
DNA 2: TGGTGGCTACGACGGGATT
binding signal [1]: 0.088 KA relative to UGCAUGU

B13: CAAUGUC (DNA:RNA)
RNA: B1 RNA with G25C, G26A, U27A, C28U, U29G, A30U
DNA 1: CAATCTGAATTCCGGTCTCCC
DNA 2: TGGTGGCTACGACGGGATT
binding signal [1]: 0.185 KA relative to UGCAUGU

B14: ACGCCGA (DNA:RNA)
RNA: B3 RNA with U25A, U26C, A27G, A28C, A29C
DNA 1: CAATCTGAATTCCGGTCTCCC
DNA 2: TGGTGGCTACGACGGGATT
binding signal [1]: 0.0979 KA relative to UGCAUGU

B15: CACUAAU (DNA:RNA)
RNA: B1 RNA with G25C, G26A, U27C, C28U, U29A, C31U
DNA 1: CAATCTGAATTCCGGTCTCCC
DNA 2: TGGTGGCTACGACGGGATT
binding signal [1]: 0.0911 KA relative to UGCAUGU

B16: AUCUCCG (DNA:RNA)
RNA: B3 RNA with U25A, A27C, A28U, A29C, G30C, A31G
DNA 1: CAATCTGAATTCCGGTCTCCC
DNA 2: TGGTGGCTACGACGGGATT
binding signal [1]: 0.136 KA relative to UGCAUGU

B17: CUUUCCG (DNA:RNA)
RNA: B1 RNA with G25C, G26U, C28U, U29C, A30C, C31G
DNA 1: CAATCTGAATTCCGGTCTCCC
DNA 2: TGGTGGCTACGACGGGATT
binding signal [1]: 0.0611 KA relative to UGCAUGU

B18: UGGCACA (DNA:RNA)
RNA: B3 RNA with U26G, A27G, A28C, G30C
DNA 1: CAATCTGAATTCCGGTCTCCC
DNA 2: TGGTGGCTACGACGGGATT
binding signal [1]: 0.0913 KA relative to UGCAUGU

B19: GCUUUCA (DNA:RNA)
RNA: B1 RNA with G26C, C28U, A30C, C31A
DNA 1: CAATCTGAATTCCGGTCTCCC
DNA 2: TGGTGGCTACGACGGGATT
binding signal [1]: 0.08 KA relative to UGCAUGU

B20: GCAGCGG (DNA:RNA)
RNA: B3 RNA with U25G, U26C, A28G, A29C, A31G
DNA 1: CAATCTGAATTCCGGTCTCCC
DNA 2: TGGTGGCTACGACGGGATT
binding signal [1]: 0.0958 KA relative to UGCAUGU

B21: CGAAUGU (ssRNA)
RNA: CGAAUGU
binding signal [2]: 31 nM

B22: GACUCCG (DNA:RNA)
RNA: B1 RNA with G26A, U27C, C28U, U29C, A30C, C31G
DNA 1: CAATCTGAATTCCGGTCTCCC
DNA 2: TGGTGGCTACGACGGGATT
binding signal [1]: 0.0876 KA relative to UGCAUGU

B23: UGUGCUA (DNA:RNA)
RNA: B1 RNA with G25U, C28G, U29C, A30U, C31A
DNA 1: CAATCTGAATTCCGGTCTCCC
DNA 2: TGGTGGCTACGACGGGATT
binding signal [1]: 0.123 KA relative to UGCAUGU

B24: GCUUACA (DNA:RNA)
RNA: B1 RNA with G26C, C28U, U29A, A30C, C31A
DNA 1: CAATCTGAATTCCGGTCTCCC
DNA 2: TGGTGGCTACGACGGGATT
binding signal [1]: 0.103 KA relative to UGCAUGU

B25: AGAUAAC (DNA:RNA)
RNA: B1 RNA with G25A, U27A, C28U, U29A
DNA 1: CAATCTGAATTCCGGTCTCCC
DNA 2: TGGTGGCTACGACGGGATT
binding signal [1]: 0.083 KA relative to UGCAUGU

B26: GCUCACG (DNA:RNA)
RNA: B1 RNA with G26C, U29A, A30C, C31G
DNA 1: CAATCTGAATTCCGGTCTCCC
DNA 2: TGGTGGCTACGACGGGATT
binding signal [1]: 0.106 KA relative to UGCAUGU

B27: GCUACUU (DNA:RNA)
RNA: B1 RNA with G26C, C28A, U29C, A30U, C31U
DNA 1: CAATCTGAATTCCGGTCTCCC
DNA 2: TGGTGGCTACGACGGGATT
binding signal [1]: 0.0978 KA relative to UGCAUGU

B28: CCCUUGU (DNA:RNA)
RNA: B1 RNA with G25C, G26C, U27C, C28U, A30G, C31U
DNA 1: CAATCTGAATTCCGGTCTCCC
DNA 2: TGGTGGCTACGACGGGATT
binding signal [1]: 0.106 KA relative to UGCAUGU

B29: CCGUUGC (DNA:RNA)
RNA: B1 RNA with G25C, G26C, U27G, C28U, A30G
DNA 1: CAATCTGAATTCCGGTCTCCC
DNA 2: TGGTGGCTACGACGGGATT
binding signal [1]: 0.11 KA relative to UGCAUGU

B30: AGAAACC (DNA:RNA)
RNA: B3 RNA with U25A, U26G, G30C, A31C
DNA 1: CAATCTGAATTCCGGTCTCCC
DNA 2: TGGTGGCTACGACGGGATT
binding signal [1]: 0.0413 KA relative to UGCAUGU

B31: GUACUUG (DNA:RNA)
RNA: B1 RNA with G26U, U27A, A30U, C31G
DNA 1: CAATCTGAATTCCGGTCTCCC
DNA 2: TGGTGGCTACGACGGGATT
binding signal [1]: 0.113 KA relative to UGCAUGU
